Reference: publication PMC10668032
The other results are listed elsewhere or left out. At the low end of the ranking the order means little.

What follows are sequences tested against SIX1 homeodomain (reference allele) (UniProt Q15475) (assay: universal protein binding microarray). Settings: Universal all-10-mer PBM (8x60K, AMADID 030236), 300 nM GST-tagged protein, Alexa Fluor 488 anti-GST; buffer, salt, pH and temperature not stated; high values mean tight binding; most listed sequences are background and not binding sites; double strand, one strand shown.

Sequence | binding signal [E-score]
ACTACTCC | 0.0619
CAGTTCCC | -0.195
CAAGCCAA | -0.173
GATAACGA | 0.029
GAGATGCC | 0.0428
CAGAGGCA | -0.238
AATTCCCC | -0.144
AATGAAGA | 0.0239
GGAAAAAC | -0.251
CTGCTTAA | -0.275
GTCAAGAC | -0.136
CAGCCTAA | -0.118
GTTTATTA | -0.00497
AAGATCTG | 0.12
AGAGTAGC | -0.0558
ATGAGCTG | 0.12
AGGAGACT | -0.157
CTGCCCTC | -0.112
ATGTGTGG | -0.129
GTGATTGA | -0.0734
ACTTGACA | -0.000965
CGACGGCG | -0.115

Sequence | binding signal [E-score]
CTGAATTA | -0.00562
ACGGACAT | -0.0887
AAGGAGCT | -0.164
CGCGTCAA | -0.108
AGGACAGG | -0.158
AGCTTTAA | -0.217
AGAGGCTA | -0.0599
AAGTCGCT | -0.254
CCGGAGGC | -0.00421
CGGATCAA | 0.417
TAGATCAA | 0.261
CTACCTAA | -0.0381
ACATATAG | 0.162
CAAAGTGA | 0.0928
CGCAATGA | 0.0681
GTCACATA | 0.0546
ACGTTCCG | -0.244
AAAGAATC | -0.0968
AGTCACGC | -0.104
TAGCTCGA | 0.145
GCATGAGA | 0.0735
CAGAGGTC | -0.131

Sequence | binding signal [E-score]
CGTGAGTA | 0.0936
AGTTCTAC | -0.0789
TCGCGCGA | -0.0537
AATCTTGA | -0.0535
GTCCCTAA | -0.0718
GGGAGGCA | -0.17
ATATACCA | 0.326
CGTTAACG | -0.0975
AGCGACTG | -0.123
CCCGAGAG | -0.0225
ATCTTGGA | 0.151
GGGCGAGA | 0.0683
GTTATGTA | -0.0766
ACATGATA | 0.426
CCGTGCCC | -0.0658
CATCGCAG | 0.0261
GCCCTTGA | 0.0459
CACGACTG | -0.0846
AACCAGCA | -0.253
TACGGTAA | 0.0132
TACGGGAA | 0.0911
AGAGTGGA | 0.0399

Sequence | binding signal [E-score]
GGACTGAC | -0.258
CGGTATTC | 0.319
GTAAACTA | 0.0311
ACTCGTCG | -0.357
CTTCATCC | 0.0553
ATTCGTAC | 0.0477
CGCCGGAA | -0.00658
CTGATAAA | 0.0132
AATTTAGT | -0.017
CAGGCATA | 0.136
CAACCTCA | -0.214
GATGGGGA | 0.191
CGTACCCA | -0.0421
AATATACC | 0.32
CGCTGTCA | -0.144
CTTTTACA | -0.328
TCAACTCA | -0.136
AAGTAGCC | -0.12
CAGTCACG | -0.154
GTTAAAAA | -0.292
CAATGCGC | -0.0377
CTGCTGCA | -0.199

Sequence | binding signal [E-score]
AGCCAAAA | -0.0893
AGTTGTGC | -0.141
GGCGCTTA | -0.0815
GGCATCTA | 0.132
TACGCACA | -0.224
AGTAACAC | -0.0453
TATACCGA | 0.339
ATCAGAAA | 0.112
CATGGCAA | -0.309
ACGAGTCC | -0.17
AGGGCGGC | -0.172
CCACCCTC | 0.0427
AATACTAG | 0.0971
AGCCGATC | 0.329
AGAAAGGC | -0.131
GCTGCCCA | -0.161
ATTAGGTC | 0.0171
AATGAAAC | 0.134
GAGGACAC | 0.222
ACTTTTTC | -0.261
AAAGGTGG | -0.148
